Inconclusive results, whose numbers are uncertain, are shown with a selection of clear calls. For part of these data: Where the call is inconclusive, the potency comes from a doubtful curve fit. Calls of active or inactive are those of the source. Unless noted, calls come from the whole dose curve; as a rule, active = well fitted curve in the direction sought with a large enough effect; inconclusive = small, poorly fitted or top-dose-only effect, or another doubt; inactive = no such curve, though single readings can be large; an effect the other way counts as inactive or inconclusive.
Assays:
[1] = target: Aldehyde dehydrogenase, mitochondrial (Homo sapiens) (UniProt P05091); assay: qHTS for Inhibitors of the Aldehyde Dehydrogenase Family (ALDH2) Confirmatory screens (AID 2061303; active = well fitted inhibition curve with a large enough effect; inconclusive = small, poorly fitted or top-dose-only effect; inactive = no such curve, though single readings can be large or run the other way; title and protocol of this record describe different tests; note: nearly all actives have a fitted effect of over 45% in size; note: potency is the fitted concentration of half-maximal effect; for activity change, negative = inhibition: % is set by controls: 0 for no effect and ±100 for the full control effect); settings: ALDH inhibition qHTS; activity change, negative = inhibition: at 45.4 µM (top of the series)
[2] = target: Aldehyde dehydrogenase, mitochondrial (Homo sapiens) (UniProt P05091); assay: qHTS for Inhibitors of the Aldehyde Dehydrogenase Family (ALDH2) Primary screen (AID 2061308); note: potency is the fitted concentration of half-maximal effect; nearly all actives have a fitted effect of over 55% in size
[3] = target: Retinaldehyde dehydrogenase 3 (Homo sapiens) (UniProt P47895); assay: qHTS for Inhibitors of the Aldehyde Dehydrogenase Family (ALDH1A3) Confirmatory screens (AID 2061311); settings: activity change, negative = inhibition: at 46 µM (top of the series); note: nearly all actives have a fitted effect of over 60% in size; note: potency is the fitted concentration of half-maximal effect; for activity change, negative = inhibition: % is set by controls: 0 for no effect and ±100 for the full control effect
[4] = target: Aldehyde dehydrogenase 1A1 (Homo sapiens) (UniProt P00352); assay: qHTS for Inhibitors of the Aldehyde Dehydrogenase Family (ALDH1A1) Confirmatory screens (AID 2061316); settings: activity change, negative = inhibition: at 47.3 µM (top of the series); note: nearly all actives have a fitted effect of over 65% in size; note: potency is the fitted concentration of half-maximal effect; for activity change, negative = inhibition: % is set by controls: 0 for no effect and ±100 for the full control effect
[5] = BET inhibitor-based combinations targeting novel dependencies in MECOM-rearranged (r) AML: HNT-34 cell line (AID 2202234); note: nearly all actives have a fitted effect of over 35% in size; note: potency is the fitted concentration of half-maximal effect;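 for viability (% of control): plate controls were vehicle wells for no effect and cell-free wells for full effect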
How it was run: (§1)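 Luminescent ATP readout (CellTiter-Glo, 15 min at room temperature) after 48 hr drug exposure gave viability. Dose-response curves, normalized to DMSO and empty-well controls, were summarized as area under the curve and its mean-centred Z-score.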

[6] = BET inhibitor-based combinations targeting novel dependencies in MECOM-rearranged (r) AML: UCSD-AML1 cell line (AID 2202235); settings: UCSD-AML1 AML cells viability, CellTiter-Glo, 48 h; viability (% of control): at 46 µM (top of the series);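 note: plate controls were DMSO vehicle wells for no effect and blank wells for full effect; nearly all actives have a fitted effect of over 40% in size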
How it was run: as §1

[7] = BET inhibitor-based combinations targeting novel dependencies in MECOM-rearranged (r) AML: AML-191 cell line (AID 2202236; note: nearly all actives have a fitted effect of over 35% in size; note: potency is the fitted concentration of half-maximal effect;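 for viability (% of control): plate controls were vehicle wells for no effect and wells without cells for full effect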)
How it was run: (§2)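 Luminescent ATP readout (CellTiter-Glo) after 48 hr drug exposure gives viability. Curves span 11 concentrations and are normalized to DMSO and empty wells. Activity is reported as area under the curve and its Z-transform within each cell line.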

[8] = BET inhibitor-based combinations targeting novel dependencies in MECOM-rearranged (r) AML: OCI-AML3 cell line (AID 2202232); settings: CellTiter-Glo luminescence, 48 h; Potency: OCI-AML3 viability; viability (% of control): at 46 µM (top of the series); note: nearly all actives have a fitted effect of over 35% in size; note: potency is the fitted concentration of half-maximal effect;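 for viability (% of control): plate controls were DMSO vehicle wells for no effect and wells without cells for full effect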
How it was run: as §2

[9] = BET inhibitor-based combinations targeting novel dependencies in MECOM-rearranged (r) AML: MV-4-11 cell line (AID 2202233); settings: MV-4-11 AML viability, CellTiter-Glo luminescence, 48 h; viability, % of control: at 46 µM (top of the series) unless noted; note: nearly all actives have a fitted effect of over 45% in size; note: potency is the fitted concentration of half-maximal effect;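 for viability, % of control: plate controls were DMSO for no effect and blank wells for full effect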
How it was run: as §1

[10] = target: Retinaldehyde dehydrogenase 3 (Homo sapiens) (UniProt P47895); assay: qHTS for Inhibitors of the Aldehyde Dehydrogenase Family (ALDH1A3) Validation screen (AID 2061312); settings: ALDH1A3 enzyme inhibition qHTS validation, fluorescence; activity change, negative = inhibition: at 84.7 µM (top of the series); note: potency is the fitted concentration of half-maximal effect; nearly all actives have a fitted effect of over 45% in size
[11] = target: Retinal dehydrogenase 2 (Homo sapiens) (UniProt O94788); assay: qHTS for Inhibitors of the Aldehyde Dehydrogenase Family (ALDH1A2) Confirmation screens (AID 2061314); settings: activity, negative = inhibition: at 45.9 µM (top of the series) unless noted; note: nearly all actives have a fitted effect of over 65% in size; note: potency is the fitted concentration of half-maximal effect; for activity, negative = inhibition: % is set by controls: 0 for no effect and ±100 for the full control effect
[12] = BET inhibitor-based combinations targeting novel dependencies in MECOM-rearranged (r) AML: SET-2 cell line (AID 2202231); settings: SET-2 AML cells viability, CellTiter-Glo luminescence, 48 h; viability: active compounds read low, concentration not given here; note: potency is the fitted concentration of half-maximal effect; nearly all actives have a fitted effect of over 35% in size
How it was run: as §2

[13] = target: Retinaldehyde dehydrogenase 3 (Homo sapiens) (UniProt P47895); assay: qHTS for Inhibitors of the Aldehyde Dehydrogenase Family (ALDH1A3) Primary screen (AID 2061315); settings: ALDH inhibition qHTS; activity change, negative = inhibition: at 56 µM (top of the series) unless noted; note: potency is the fitted concentration of half-maximal effect
Tags give direction and shape of the fitted curve.

Question: Which Potency [1] does the source give for `O=C(O)c1cccnc1SC1=NS(=O)(=O)c2ccccc21` here?
Answer: The Potency was “inactive”.

Question: What about the Potency [2] of the same compound?
Answer: Its Potency is inconclusive: 0.631 µM [inhibitor, full curve].

Question: What about the Potency [3] of the same compound?
Answer: The Potency was “inactive”.

Question: And the Potency [4]?
Answer: The Potency was inconclusive: 35.7 µM [inhibitor, partial curve, poor fit].

Question: What does the source list for `O=C(O)c1cnn(-c2nc3cc(OC(F)(F)F)c(Cl)cc3[nH]2)c1`?
Answer: Potency [5]: inconclusive: 23.5 µM [inhibitor, single point]; Potency [6]: inactive; Potency [7]: inconclusive: 33.2 µM [inhibitor, partial curve, poor fit]

Question: Which results are given for `O=C(O)c1ccccc1C(=O)Nc1ccc(-c2ccccc2)cc1`?
Answer: Potency [8]: inconclusive: 9.34 µM [inhibitor, partial curve, poor fit]; Potency [9]: inactive; Potency [5]: inactive; Potency [6]: inactive

Question: For `Cc1ccc(S(=O)(=O)NC(=O)NN2CCCCCC2)cc1`, which Potency [1] is on record?
Answer: The Potency was “inactive”.

Question: What about the Potency [10] of the same compound?
Answer: Its Potency is inconclusive: 0.398 µM [inhibitor, full curve].

Question: And the Potency [4]?
Answer: The Potency was “inactive”.

Question: Which results are given for `O=C1[C@@H]2[C@H]3CC[C@H](C3)[C@@H]2C(=O)N1CCCCN1CCN(c2ncccn2)CC1`?
Answer: Potency [1]: inactive; activity change, negative = inhibition [3]: inactive: -14.2% [at 0.022 µM]; Potency [4]: active: 2.52 µM

Question: For `COc1ccc(-n2cnc3cc(C(=O)N4CCCCC4)ccc32)cc1`, which Potency [1] is on record?
Answer: The Potency was “inactive”.

Question: What about the Potency [3] of the same compound?
Answer: The Potency was inconclusive: 14.2 µM [inhibitor, partial curve].

Question: And the Potency [11]?
Answer: The Potency was inconclusive: 20.1 µM [inhibitor, partial curve, poor fit].

Question: What about the Potency [4] of the same compound?
Answer: Its Potency is “inactive”.

Question: What about the Potency [8] of the same compound?
Answer: The Potency was “inactive”.

Question: What about the Potency [9] of the same compound?
Answer: Its Potency is active: 18.6 µM.

Question: What about the Potency [5] of the same compound?
Answer: The Potency was “inactive”.

Question: What about the Potency [7] of the same compound?
Answer: The Potency was “inactive”.

Question: Which Potency [1] does the source give for `O=c1c(O)c(-c2cc(O)c(O)c(O)c2)oc2cc(O)cc(O)c12` here?
Answer: The Potency was inconclusive: 12.7 µM [inhibitor, partial curve].

Question: What about the Potency [10] of the same compound?
Answer: The Potency was inconclusive: 2 µM [inhibitor, full curve].

Question: And the Potency [11]?
Answer: Its Potency is “inactive”.

Question: And the Potency [4]?
Answer: Its Potency is inconclusive: 3.18 µM [inhibitor, full curve].

Question: What about the Potency [12] of the same compound?
Answer: Its Potency is inconclusive: 33.2 µM [inhibitor, single point].

Question: And the Potency [9]?
Answer: Its Potency is inconclusive: 37.2 µM [inhibitor, single point].

Question: What about the Potency [5] of the same compound?
Answer: The Potency was “inactive”.

Question: And the Potency [7]?
Answer: Its Potency is “inactive”.

Question: For `O=C(NN1CCCC1)NS(=O)(=O)c1ccc(Cl)cc1`, which Potency [1] is on record?
Answer: The Potency was “inactive”.

Question: And the Potency [3]?
Answer: Its Potency is “inactive”.

Question: And the Potency [13]?
Answer: Its Potency is inconclusive: 3.98 µM [inhibitor, partial curve, poor fit].

Question: And the Potency [4]?
Answer: The Potency was “inactive”.

Question: What does the source list for `N#Cc1nc2c(nc1C#N)-c1ccccc1C2=O`?
Answer: Potency [1]: active: 10 µM; Potency [3]: inactive; Potency [11]: inconclusive: 35.5 µM [inhibitor, single point]; Potency [4]: inactive

Question: Which results are given for `O=S(=O)(NN1CCOCC1)c1ccc(Br)cc1`?
Answer: Potency [1]: inconclusive: 10.1 µM [inhibitor, partial curve, poor fit]; Potency [3]: inactive; Potency [4]: active: 3.57 µM

Question: For `COc1cccc(CN2C(=O)c3ccccc3NC2c2ccc(OC)c(COc3ccc(NC(C)=O)cc3)c2)c1` (stereo unspecified), which Potency [1] is on record?
Answer: Its Potency is inconclusive: 25.1 µM [inhibitor, partial curve, poor fit].

Question: What about the Potency [3] of the same compound?
Answer: The Potency was inconclusive: 8.91 µM [inhibitor, full curve].

Question: What about the Potency [11] of the same compound?
Answer: Its Potency is inconclusive: 20.1 µM [inhibitor, partial curve].

Question: What about the Potency [4] of the same compound?
Answer: Its Potency is inconclusive: 12.7 µM [inhibitor, partial curve, poor fit].

Question: What does the source list for `CC(C)NS(=O)(=O)c1ccc(OCC(=O)N2CCN(c3cccc(Cl)c3)CC2)cc1`?
Answer: Potency [1]: inconclusive: 4.47 µM [inhibitor, full curve]; Potency [11]: inactive

Question: Which results are given for `Cc1cnc(-c2ccccc2CO)nc1NCC1CCN(c2cccnc2)CC1`?
Answer: Potency [1]: inconclusive: 14.2 µM [inhibitor, partial curve]; Potency [3]: inactive; Potency [11]: active: 11.3 µM; Potency [4]: inconclusive: 12.7 µM [inhibitor, partial curve]

Question: Which results are given for `Cc1ccc(NC(=O)CSc2nc3ccccc3nc2N2CCOCC2)cc1`?
Answer: Potency [1]: inconclusive: 17.8 µM [inhibitor, partial curve]; Potency [3]: inconclusive: 15.8 µM [inhibitor, partial curve, poor fit]; Potency [11]: active: 2.29 µM; Potency [4]: inconclusive: 2.89 µM [inhibitor, full curve]

Question: For `COc1ccccc1-c1cc(-c2ccccc2OC)c2onc(C)c2n1`, which Potency [1] is on record?
Answer: Its Potency is “inactive”.

Question: And the Potency [3]?
Answer: The Potency was active: 25.1 µM.

Question: What about the Potency [11] of the same compound?
Answer: Its Potency is “inactive”.

Question: And the Potency [4]?
Answer: The Potency was inconclusive: 26.4 µM [inhibitor, partial curve].

Question: For `N#Cc1nc(Nc2ccc3ccccc3c2)nc(NC2CCCC2)n1`, which Potency [1] is on record?
Answer: The Potency was inconclusive: 25.2 µM [inhibitor, partial curve, poor fit].

Question: And the Potency [3]?
Answer: Its Potency is inconclusive: 25.2 µM [inhibitor, partial curve, poor fit].

Question: What about the Potency [11] of the same compound?
Answer: The Potency was active: 22.5 µM.

Question: And the Potency [4]?
Answer: Its Potency is inconclusive: 12.7 µM [inhibitor, partial curve].

From PubChem BioAssay (NCATS)
